Test results as given in PubChem BioAssay AID504832 (National Center for Advancing Translational Sciences (NCATS), 2011).
Among all 310,000 compounds or so, about 18,000 (5.8%) were called active. Inconclusive results, whose numbers are uncertain, are shown with a selection of clear calls. The call rests on the fitted dose curve; in most records, active means well fitted inhibition curve with a large enough effect; inconclusive means small, poorly fitted or top-dose-only effect, or another doubt; inactive means no such curve, though single readings can be large or run the other way. Potencies of inconclusive entries are left out as doubtful fits.

Assay: Primary qHTS for delayed death inhibitors of the malarial parasite plastid, 48 hour incubation
Conditions: P. falciparum luciferase growth in erythrocytes; series mostly up to 28.7 µM
Method in brief: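 Parasite viability was followed by luminescence of a genomically integrated firefly luciferase. Cultures held 0.1% parasitemia at 2% hematocrit (final), incubated under 5% CO2 at 37 C.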
Potency means the concentration at half of the fitted maximal effect; tags describe the fitted curve by direction and shape.

SMILES	Potency
Nc1cc(=O)[nH]c(SCC(=O)N2CCCCC2)n1	inactive
CCOc1ccc(CN(C)C(=O)c2ccc3c(c2)NC(=O)C(C)S3)cc1OC (stereo not drawn)	inconclusive [inhibitor, partial curve, poor fit]
Cc1cccc(C)c1-n1c(C)nn(CC2CC2)c1=O	inconclusive [inhibitor, partial curve, poor fit]
COc1ccc(CCNC(=O)C2CCCN(c3ncnc4c3nc3n4CCCCC3)C2)c(OC)c1 (stereo not drawn)	inconclusive [inhibitor, partial curve, poor fit]
CCC(=O)N1CCc2cc(S(=O)(=O)NC(Cc3ccccc3)C(=O)O)ccc21 (stereo not drawn)	inactive
O=C(C1CCCN(C2CC(=O)N(c3ccc(Cl)cc3)C2=O)C1)N1CCCC1 (stereo not drawn)	inactive
O=C1N(c2ccccc2)C(=Nc2ccccc2)SC12CC2	inconclusive [inhibitor, single point]
Cc1noc(C)c1C(=O)NNc1ccc(C(C)C)cc1	inconclusive [inhibitor, full curve, poor fit]
COc1ccc(OC)c(NC(=O)COc2ccc3c(c2)CCC3)c1	active: 13.1 µM
CC(=Nc1ccc(C)cc1C)c1sc2ccccc2c1O	inactive
COC(=O)CCC/C=C1/SCC(NC(=O)c2ccccc2)/C1=N/O (stereo not drawn)	inactive
COc1ccc(/C=N/NC(=O)CC(=O)NCc2cccnc2)cc1[N+](=O)[O-]	inconclusive [inhibitor, full curve]
CCCCn1c(N)c(N(C)C(=O)c2ccccc2Oc2ccccc2)c(=O)[nH]c1=O	inconclusive [inhibitor, single point]
COc1ccccc1NC(=O)CN(Cc1ccco1)C(=O)c1cncc(Br)c1	inconclusive [inhibitor, single point]
COc1ccc(OC)c(NC2c3ncccc3C(=O)N2Cc2ccco2)c1 (stereo not drawn)	inactive
Cc1oc2cc3oc(=O)c(CCC(=O)NC4CC4)c(C)c3cc2c1C	inconclusive [inhibitor, partial curve, poor fit]
COC(=O)c1ccc(/C=C/c2c(-c3ccc(OC)cc3)oc3ccc(N4CCOCC4)cc23)cc1	inconclusive [inhibitor, partial curve]
COCCNC(=O)c1ccc(N2CC3CC(C2)c2cccc(=O)n2C3)c(NC(=O)c2ccc(Br)o2)c1 (stereo not drawn)	inactive
O=C(c1ccc(N2CCN(C(=O)c3cccc(F)c3)CC2)cc1)c1cccc(F)c1	active: 13.1 µM
COc1ccc(Cl)cc1NS(=O)(=O)c1cccc(C(=O)NCC2CCCO2)c1 (stereo not drawn)	inactive
COc1ccc(CC(=O)Nc2ccc(C#N)c(Cl)c2)cc1S(=O)(=O)N1CCOCC1	inactive
CCOC(=O)C1=NN(c2ccccc2)C(=O)C1	inconclusive [inhibitor, full curve, poor fit]
O=C1N/C(=C\c2ccccc2)c2ccccc21	inactive
Cc1ccc(NC(=O)c2ccc(NCCCN3CCOCC3)c([N+](=O)[O-])c2)cc1Cl	active: 2.33 µM
C=CCOc1ccc(Br)cc1CNC(C)(C)C	inactive

SMILES	Potency
COc1cc(-c2[nH]nc3c2C(c2ccco2)C(C#N)=C(N)O3)cc(OC)c1OC (stereo not drawn)	inconclusive [inhibitor, partial curve, poor fit]
CN1Cc2c(N3CCOCC3)nc3sc(C(=O)c4ccccc4)c(N)c3c2CC1(C)C	inconclusive [inhibitor, partial curve, poor fit]
O=C1NC(=O)N(Cc2ccco2)C(=O)/C1=C/c1cccn1CCOc1ccccc1Cl	inactive
CCOC(=O)C(=O)Nc1cccc(C(=O)OCC)c1	inconclusive [inhibitor, partial curve, poor fit]
O=C(O)c1cnc(-c2ccccc2)nc1Sc1ccc(Cl)cc1Cl	inactive
C/C(CC(=O)Nc1ccc(N(C)C)cc1)=N\NC(=O)c1cnccn1	inconclusive [inhibitor, partial curve, poor fit]
CC(=O)N1c2ccc(S(=O)(=O)NCC3CCC(C(=O)NCc4ccc(C)o4)CC3)cc2CC1C (stereo not drawn)	inconclusive [inhibitor, single point]
CN1C(N)=NC(=O)/C1=C/c1ccc(OC(F)(F)F)cc1	inactive
CCn1c(=O)c(C(=O)NCCN2CCCCC2)c(O)c2ccccc21	active: 8.28 µM
Cc1ccc(NC(=O)CSc2nnc(N)s2)cc1S(=O)(=O)N1CCOCC1	inconclusive [inhibitor, single point]
COc1ccc(CCNC(=O)Cn2c(=O)[nH]c3ccsc3c2=O)cc1OC	active: 11.7 µM
CCn1c(=O)c2cc(C(=O)N(C)c3ccccc3F)sc2c2ccccc21	inconclusive [inhibitor, single point]
Cc1ccc(-c2ccc(OC(=O)c3ccc(=O)[nH]c3)c(C)c2)cc1	inactive
O=C(COc1cccc(C(F)(F)F)c1)Nc1ccc(S(=O)(=O)N2CCCC2)cc1	inconclusive [inhibitor, single point]
O=C(c1ccccc1)N1CCSc2sccc2C1=O	inactive
CC#C[C@@H](CC)c1ccc2ccn(C)c2c1	inconclusive [inhibitor, single point]
CCOC(=O)C1CCN(C(=O)c2c(C)oc3c2C(=O)c2ccccc2C3=O)CC1	active: 0.415 µM
CCN(c1ccc(OC)cc1)S(=O)(=O)c1ccc(-c2cc(C)no2)s1	inactive
CCN1CCN(S(=O)(=O)c2ccc(Cl)c(C(=O)N(C)Cc3cccc(OC)c3)c2)CC1	inconclusive [inhibitor, single point]
COc1cccc(CNC(=O)COC(=O)c2cc([N+](=O)[O-])ccc2N2CCCC2)c1	inconclusive [inhibitor, single point]
COc1cccc(CN2CCNC(=O)C2CC(=O)NCCc2ccccn2)c1 (stereo not drawn)	inactive
CC1CCN(C(=O)C(=O)c2cn(CC(=O)N3CCCCCC3)c3ccccc23)CC1	inconclusive [inhibitor, partial curve, poor fit]
COc1ccc(NC(=O)C2CCCC2)cn1	inactive
O=C(Nc1ccccc1)N1CCN(c2nc3ccccc3s2)CC1	inconclusive [inhibitor, partial curve]
COc1cccc(NC(=S)N2CCN(c3ccc([N+](=O)[O-])cc3)CC2)c1	inconclusive [inhibitor, full curve, poor fit]

SMILES	Potency
COCc1ccc(C(=O)NC2CCCc3c2cnn3-c2ccc(C)c(C)c2)o1 (stereo not drawn)	inactive
CCc1cc(=O)oc2cc(C)cc(OC(C)C(=O)NCc3ccccn3)c12 (stereo not drawn)	active: 3.7 µM
COC(=O)c1ccc(NC(=O)C2CCN(S(C)(=O)=O)CC2)cc1	inconclusive [inhibitor, full curve]
COc1ccc(C2CCCN2C(=S)Nc2cccc(Cl)c2)cc1OC (stereo not drawn)	inconclusive [inhibitor, partial curve]
Cc1cc(C(=O)N2CCN(S(=O)(=O)c3ccc(F)c(Cl)c3)CC2)c(C)o1	inconclusive [inhibitor, partial curve]
COc1ccccc1N1CCN(C/C(O)=C(\C#N)c2nc(-c3ccccc3)cs2)CC1	inactive
Cc1cc(-c2ccccc2)nc2oc(C(=O)NN)c(N)c12	inconclusive [inhibitor, single point]
O=C(Nc1ncccn1)c1ccc([N+](=O)[O-])o1	active: 8.28 µM
O=C(c1cn(-c2ccccc2)nc1-c1cccs1)N1CCN(c2ccc(F)cc2)CC1	inconclusive [inhibitor, partial curve, poor fit]
Cc1c(NC(=S)NC(=O)c2cccc(Br)c2)c(=O)n(-c2ccccc2)n1C	inactive
CC(C)N1C(=S)SC(C)(C)C1n1oc(=O)n(-c2ccc(Cl)c(Cl)c2)c1=O (stereo not drawn)	inconclusive [inhibitor, single point]
COc1ccc(CN2C(=O)C(CC(C)C)Nc3ncnc(N4CCCCC4)c32)cc1 (stereo not drawn)	inconclusive [inhibitor, single point]
O=C(N1CCOCCOc2ccccc2OCCOCC1)C(F)(F)F	inconclusive [inhibitor, single point]
CN(C)C(=O)O/N=C(\N)COc1ccc(C(C)(C)C)cc1	active: 6.57 µM
Cc1cccc(NC(=S)Nc2cccc(C)n2)n1	inconclusive [inhibitor, partial curve, poor fit]
CC(NCC(=O)Nc1ccccc1C(=O)NC1CC1)c1cccc(Cl)c1 (stereo not drawn)	inconclusive [inhibitor, single point]
Cc1ccc(-c2csc(NC(=O)c3ccco3)n2)cc1C	inactive
CCOc1ccccc1C(=O)Nc1cccc2ccccc12	inactive
CN(c1ccc(C(=O)N2CCN(Cc3ccccc3)CC2)cc1)S(=O)(=O)c1ccccc1	inactive
CC(CCc1ccccc1)NC(=O)c1ccco1 (stereo not drawn)	inconclusive [inhibitor, single point]
N#CCSc1nc2ccc(N3CCCCC3)cc2c(=O)n1Cc1ccccc1	inconclusive [inhibitor, partial curve, poor fit]
N#C/C(=N\Nc1ccc(S(=O)(=O)N2CCCCCC2)cc1)C(N)=S	inactive
Cc1c(F)cccc1NC(=O)c1ccc2c(c1)CCN2S(C)(=O)=O	inconclusive [inhibitor, single point]
